Out of some 45,000 compounds screened, about 65 (0.1%) were called active. Calls come from the whole dose curve; as a rule, active = well fitted activation curve with a large enough effect; inconclusive = small, poorly fitted or top-dose-only effect; inactive = no such curve, though single readings can be large or run the other way. Some of the results follow.

For this test, the target named is Galactocerebrosidase (Homo sapiens) (UniProt P54803). The test can be described thus: A Novel Cell-Based Assay to Identify Small Molecules for B -Galactocerebrosidase. Note: 0% is about no effect; nearly all actives have a fitted effect of over 65% in size. The note with it: 145M-Twi-hGALC-G270D cells (Twitcher mouse brain line with human GALC G270D), HMU-beta-Gal fluorescence, 48 h; series mostly up to 57.5 µM; activation: at the top concentration. In short, it runs like this: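 Brain-derived Twitcher mouse 145M-Twi cells stably expressing human GALC-G270D or wild-type GALC, treated live, then residual GALC activity read by fluorescence of HMU-b-Gal substrate (0.1 mM final) in citrate-phosphate buffer pH 5.2 with sodium taurocholate. Signal increase indicates enhancement.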
Chain of UniProt P54803 (P54803 whole entry, looked up): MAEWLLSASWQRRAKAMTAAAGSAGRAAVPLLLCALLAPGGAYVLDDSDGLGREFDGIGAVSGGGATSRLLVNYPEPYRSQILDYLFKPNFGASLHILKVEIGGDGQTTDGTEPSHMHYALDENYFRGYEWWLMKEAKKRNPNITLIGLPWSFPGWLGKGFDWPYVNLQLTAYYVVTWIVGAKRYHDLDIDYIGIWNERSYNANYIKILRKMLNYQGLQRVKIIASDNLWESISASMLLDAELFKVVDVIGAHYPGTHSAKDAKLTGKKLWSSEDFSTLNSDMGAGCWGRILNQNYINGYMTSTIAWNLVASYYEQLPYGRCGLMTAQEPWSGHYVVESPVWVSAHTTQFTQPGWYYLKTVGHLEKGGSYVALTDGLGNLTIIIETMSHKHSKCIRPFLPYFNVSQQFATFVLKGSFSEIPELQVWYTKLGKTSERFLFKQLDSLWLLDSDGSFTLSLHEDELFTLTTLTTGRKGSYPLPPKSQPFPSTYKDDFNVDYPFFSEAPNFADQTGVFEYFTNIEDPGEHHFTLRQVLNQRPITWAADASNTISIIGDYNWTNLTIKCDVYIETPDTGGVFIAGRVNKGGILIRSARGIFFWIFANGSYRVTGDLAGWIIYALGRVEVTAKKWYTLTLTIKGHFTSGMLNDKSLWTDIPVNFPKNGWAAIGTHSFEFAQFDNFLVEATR
For `O=C(Nc1ccccc1)N1CCN(C(=O)c2nsc3ccccc23)CC1`, the “activation” value was inactive: 5.88%.
Consider `CC(=O)c1cccc(NC(=O)CCc2c(C)nc3c(-c4ccc(F)cc4)c(C)nn3c2C)c1`, for which the “activation” value is inactive: 6.59%.
On to `Fc1cccc(F)c1-c1nc(-c2ccncc2)no1`, for which the “activation” value is inactive: -13.5%.
Regarding `Cc1cc(=O)n2nc(N3CCC(C(=O)Nc4ccc(C(C)C)cc4)CC3)sc2n1`, the “activation” value was inactive: -5.94%.
With `COc1ccc(OC)c(NC(=O)Cn2cc(S(=O)(=O)c3ccccc3)c(=O)c3cc(C)ccc32)c1`, the “activation” value is inactive: -6.55%.
For `CCCc1nc2sc3c(N4CCCCC4)ncnc3c2c2c1CCCC2`, the “activation” value is inactive: -13.5%.
As for `Cc1ccc(CCNC(=O)CCn2c(=O)c3cccn3c3ccc(F)cc32)cc1`, the figure is inactive: 4.18%; as for `COc1cc(OC)cc(C(=O)Nc2cc3nn(-c4ccccc4)nc3cc2Cl)c1`, inactive: -5.55%.
The result for `O=C(NCc1ccc2c(c1)CCN2C(=O)c1ccc(F)cc1)c1ccc(Br)o1` reads inactive: -2.06%; that for `COCCCN1C(=O)N(c2ccccc2)C(=O)C1CC(=O)Nc1ccc(F)cc1` (stereo unspecified), inactive: -7.55%.
The result for `Cc1cc(C)c(NC(=O)Cn2nc3c(cc2=O)CCCC3)c(C)c1` reads inactive: -12.4%; that for `COc1ccccc1NC(=O)N1CC(=O)Nc2sc3c(c2C1c1ccccc1)CCCC3` (stereo unspecified), inactive: -10.3%.
Consider `O=C(Nc1ccc(S(=O)(=O)Nc2ccccc2)cc1)N1CCCC1`, for which the “activation” value is inactive: -16.3%.
In the case of `CCCS(=O)(=O)c1ncc(Cl)c(C(=O)N(Cc2ccccc2)Cc2ccco2)n1`, the “activation” value was inactive: -14.8%.
As for `Cc1ccc(S(=O)(=O)Nc2cc3c(cc2C)n(C)c(=O)c(=O)n3C)cc1`, the “activation” value is inactive: -12.7%.
On to `O=S1(=O)c2cccc3cccc(c23)N1CCCN1CCN(c2ccc(F)cc2)CC1`, for which the “activation” value is inactive: -26.9%.
As for `COc1ccc(-c2noc(-c3ccc(NCc4ccc(C)cc4)c([N+](=O)[O-])c3)n2)cc1OC`, the figure is inactive: -7.11%; as for `Cn1c(=O)c2c(nc(SCC(=O)Nc3ccc(OC(F)(F)F)cc3)n2Cc2cccc(C(F)(F)F)c2)n(C)c1=O`, inactive: -51.8%; as for `COc1ccc(-n2nc(C(=O)N3CCC(C)CC3)c3c4ccccc4n(C)c3c2=O)cc1Cl`, inactive: -7.88%.
As for `Cc1ccccc1NC(=O)CSc1nc(-c2ccc(F)cc2)c2cccc(C)c2n1`, the figure is inactive: 0.045%.
As for `O=c1[nH]c(=O)c2ccccc2o1`, the “activation” value was inactive: -12.9%.
On to `COc1cc(CNC(=O)c2cc(-c3ccccc3)n[nH]2)cc(OC)c1OC`, for which the “activation” value is inactive: -17.5%.
As to `COc1cccc(CNC(=O)Cn2cc3c(n2)-c2c(oc(C(=O)N4CCCC4)c2C)CC3)c1OC`, the “activation” value is inactive: -11%.
On to `CCc1nn(CC(=O)NCCc2ccc(OC)cc2OC)c(=O)c2cc3sccc3n12`, for which the “activation” value was inactive: 16.8%.
Turning to `Cc1ccc(-c2onc(C)c2C)cc1S(=O)(=O)N1CCCCC1`, the “activation” value was inactive: 4.48%.
In the case of `CCOC(=O)c1c(N)n(-c2ccc(C)c(C)c2)c2nc3ccccc3nc12`, the “activation” value is inactive: 13.7%.
Turning to `Cc1ccc(CSC2=Nc3ccccc3C3=NC(CCC(=O)N4CCN(c5ccccc5)CC4)C(=O)N23)cc1` (stereo unspecified), the “activation” value is inactive: -3.32%.
With `CCOC(=O)c1sc2ccccc2c1S(=O)(=O)Nc1c(C)cccc1C`, the “activation” value was inactive: -14.6%.
With `Cn1nc(C(=O)NCc2ccccc2)c2c1-c1ccccc1SC2`, the “activation” value is inactive: -12.9%.
For `O=C(Cn1c(=O)n(-c2ccc(F)cc2)c(=O)c2sc3ccccc3c21)N1CCCC1`, the “activation” value was inactive: -10.5%.
Regarding `Cc1cc(NC(=O)N2CC=C(c3c[nH]c4ccccc34)CC2)ccc1Br`, the “activation” value is inactive: -23.7%.
As for `COc1cc(NC(=O)Cn2ncc3c(=O)oc4ccccc4c32)cc(OC)c1OC`, the figure is inactive: -17.6%; as for `Cc1nc2c(cnn2-c2ccccc2Cl)c(=O)n1-c1ccc(C(C)C)cc1`, inactive: -0.323%.
`CCc1ccc(S(=O)(=O)c2nnn3c2nc(NCCc2ccccc2)c2sccc23)cc1`: the “activation” value was inactive: -28.3%.
For `COc1cccc(-c2nc(SCC(=O)Nc3ccc4c(c3)OCO4)c(-c3ccccc3)[nH]2)c1`, the “activation” value is inactive: -16%.
As for `CN(C)S(=O)(=O)N(CC(=O)NCCSCc1ccccc1Cl)c1ccccc1`, the figure is inactive: -25%.
Regarding `CCCc1noc(-c2ccc(N3CCCCC3)c([N+](=O)[O-])c2)n1`, the “activation” value is inactive: -14.4%.
As for `COc1ccc(CCn2cc3c(c2-c2ccccc2Br)c(=O)n(C)c(=O)n3C)cc1OC`, the “activation” value was inactive: -28.6%.
The result for `Cc1cccc(N2CCN(S(=O)(=O)c3cc(Br)cc4c3N(C(=O)C3CC3)CC4)CC2C)c1` (stereo unspecified) reads inactive: -18.1%; that for `CN1C(=O)Cc2cc(S(=O)(=O)CCC(=O)Nc3cccc(C(F)(F)F)c3)ccc21`, inactive: -17.4%; that for `CC(C)OCCCn1c(SCc2cccc(Br)c2)nc2c(sc3ccccc32)c1=O`, inactive: -13.1%.
As for `COc1ccc2c(Sc3ccccc3)c(C(=O)NCc3cccc(OC)c3OC)[nH]c2c1`, the figure is inactive: -24.2%; as for `CCOc1ccc(CCNC(=O)CCCc2nnc3n(CC(C)C)c(=O)c4sccc4n23)cc1`, inactive: -12.9%.
As to `CCOC(=O)C1(C)C=C(Nc2ccc(C(N)=O)cc2)C(=O)N1c1ccccc1` (stereo unspecified), the “activation” value is inactive: -12.6%.
The result for `CCOC(=O)c1cc(S(=O)(=O)Nc2ccc(OC)c(Cl)c2)[nH]n1` reads inactive: -1.84%; that for `Cc1ccc(OC(=O)c2cc(-c3ccccc3)nc3ccc(C)cc23)cc1`, inactive: -17.5%; that for `COCCNC(=O)c1ccc2c(c1)N(Cc1cccc(Cl)c1)C(=O)c1ccccc1S2(=O)=O`, inactive: -12%.
With `COc1ccccc1Oc1nc2c(c(=O)n(C)c(=O)n2C)n1Cc1cccc(Br)c1`, the “activation” value was inactive: -14.9%.
As for `CC(=O)N1c2ccc(S(=O)(=O)NCC3CCC(C(=O)NCCC(C)C)CC3)cc2CC1C` (stereo unspecified), the figure is inactive: 10.5%; as for `CCc1ccc(OC(=O)CSc2nnc(-c3ccc4c(c3)OCO4)o2)cc1`, inactive: -5.16%.
For `CCS(=O)(=O)N1CCc2cc(C(=O)N3CCN(c4cccc(C(F)(F)F)c4)CC3)ccc21`, the “activation” value was inactive: -1.55%.
In the case of `Cc1ccc(NC(=O)C(=O)NCC(c2cccnc2)N2CCOCC2)cc1C` (stereo unspecified), the “activation” value is inactive: -12.9%.
As for `Cc1ccc(C)c(Cn2c(=O)c3c(nc4n3CCN4c3ccc(F)cc3)n(C)c2=O)c1`, the figure is inactive: 0.483%; as for `CCn1c(CN2CCC(C)CC2)nc2cc(NC(=O)c3ccccc3[N+](=O)[O-])ccc21`, inactive: -16.4%.
Consider `CC(=O)NCCNC(=O)CCCc1nnc2n(CCC(C)C)c(=O)c3sccc3n12`, for which the “activation” value is inactive: -8.77%.
The result for `CCOC(=O)c1c(C)[nH]c(CCC(=O)NCCCN2CCN(c3cccc(Cl)c3)CC2)c1C` reads inactive: -14.8%; that for `CCOc1ccc(-n2c(Cc3ccccc3)nnc2SCc2nc(-c3ccccc3C)no2)cc1`, inactive: -10.9%; that for `Cc1ccc(C(=O)c2oc3ccccc3c2NC(=O)c2cc(=O)c3ccccc3o2)cc1`, inactive: -15.7%.
With `Fc1cccc(-c2nc(-c3ccncc3)no2)c1`, the “activation” value is inactive: -9.31%.
The result for `CCOCCCNC(=O)C(c1ccc(OC)cc1)N(Cc1cccs1)C(=O)c1ccc(NC(C)=O)cc1` (stereo unspecified) reads inactive: -25%.
`COc1cccc(-c2cn3c(n2)sc2cc(C(=O)NCc4cccs4)ccc23)c1`: the “activation” value is inactive: -18.8%.
